Results from PMC4336329 (PLoS ONE, 2015).
In all, about 310,000 compounds went through this assay and about 14,000 (4.5%) showed an effect of 50% or more. Effects have a minus sign here. The list shows a part of the results.

The compounds below were run against human ether-à-go-go-related gene (hERG) potassium channel (human, UniProt Q12809) (assay: primary screen, population patch clamp on CHO cells stably expressing hERG).
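Further: peak tail current of the secondary pulse compared with the same well before compound.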

Chain of human ether-à-go-go-related gene (hERG) potassium channel (Q12809 whole entry, looked up): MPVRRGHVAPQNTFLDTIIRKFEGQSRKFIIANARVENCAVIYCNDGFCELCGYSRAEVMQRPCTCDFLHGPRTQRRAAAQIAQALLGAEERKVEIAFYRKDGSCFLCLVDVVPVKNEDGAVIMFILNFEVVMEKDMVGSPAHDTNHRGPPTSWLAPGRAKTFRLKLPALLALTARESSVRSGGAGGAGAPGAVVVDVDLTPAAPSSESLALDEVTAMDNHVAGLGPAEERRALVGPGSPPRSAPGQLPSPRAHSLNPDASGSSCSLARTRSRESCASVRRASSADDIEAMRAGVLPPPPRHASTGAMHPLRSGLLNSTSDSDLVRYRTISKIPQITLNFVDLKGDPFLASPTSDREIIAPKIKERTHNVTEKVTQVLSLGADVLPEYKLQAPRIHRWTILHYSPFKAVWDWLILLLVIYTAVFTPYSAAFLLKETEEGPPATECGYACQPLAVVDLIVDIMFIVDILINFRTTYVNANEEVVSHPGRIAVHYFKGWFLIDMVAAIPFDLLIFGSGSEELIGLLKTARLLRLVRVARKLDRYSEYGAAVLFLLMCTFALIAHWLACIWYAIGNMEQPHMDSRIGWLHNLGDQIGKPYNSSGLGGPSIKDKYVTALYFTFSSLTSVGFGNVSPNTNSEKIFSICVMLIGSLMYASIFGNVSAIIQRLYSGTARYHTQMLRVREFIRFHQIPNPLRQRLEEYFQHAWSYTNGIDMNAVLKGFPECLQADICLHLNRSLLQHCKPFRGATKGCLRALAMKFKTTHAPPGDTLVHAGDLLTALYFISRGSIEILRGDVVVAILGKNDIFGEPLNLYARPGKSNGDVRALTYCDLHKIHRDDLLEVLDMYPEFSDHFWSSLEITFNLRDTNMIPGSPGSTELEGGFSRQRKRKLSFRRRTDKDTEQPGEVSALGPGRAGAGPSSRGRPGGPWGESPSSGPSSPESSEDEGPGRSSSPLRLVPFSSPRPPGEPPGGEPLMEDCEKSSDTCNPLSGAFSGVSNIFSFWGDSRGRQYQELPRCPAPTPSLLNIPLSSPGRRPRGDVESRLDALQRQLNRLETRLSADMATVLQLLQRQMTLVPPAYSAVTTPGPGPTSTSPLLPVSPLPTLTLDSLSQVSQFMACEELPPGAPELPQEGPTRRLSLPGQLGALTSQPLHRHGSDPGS

| SMILES | hERG current change (%, negative = inhibition) at 10uM |
| --- | --- |
| O=C1NC(c2ccc3c(c2)OCO3)Oc2ccccc21 (stereo not shown) | 9.35% |
| CCCCC(O)CN1CCC(c2ccccc2)CC1 (stereo not shown) | -56.6% |
| Cc1ccc(OCC(O)CN2C(=O)NC(C)(C)C2=O)cc1C (stereo not shown) | 14% |
| O=C(Nc1ccccc1N1CCCC1)C1CCN(S(=O)(=O)c2ccccc2)CC1 | -6.89% |
| O=S(=O)(Cc1cc(NCc2ccccc2)nc(-c2ccccn2)n1)c1ccccc1 | -17.1% |
| Cc1ccccc1NS(=O)(=O)c1ccc(OCC(=O)NCc2ccco2)cc1 | -17.5% |
| Cc1cc2ncn(C(=O)c3cc(-c4ccccc4)nc4ccccc34)c2cc1C | 7.56% |
| COC(=O)CNc1cc(S(=O)(=O)N2CCCCC2)ccc1Oc1cccc(C)c1 | -30.7% |
| O=C(/C=C/c1ccco1)NC1CCCC1 | 17.4% |
| O=C1NC(=O)C2(Cc3ccccc3N3CCCC32)C(=O)N1c1cccc(Cl)c1 (stereo not shown) | -18.1% |
| CCOc1ccc(NC(=O)CN2CCN(CC(=O)Nc3ccc(C(N)=O)cc3)CC2)cc1 | -72.6% |
| COc1ccc(S(=O)(=O)Nc2ccccc2C(=O)N2CCOCC2)cc1Cl | -18.5% |
| CC(C)(C)C(=O)OCc1cn(-c2ccccc2)nn1 | -1.68% |
| CCOC(=O)CN1C(=O)N[C@@H](c2ccco2)C(C(C)=O)=C1C | 2.93% |
| O=C(CSc1nnc(-c2ccco2)o1)N1c2ccccc2CCc2ccccc21 | -3.88% |
| CC(C)c1ccc(NC2CCCN(C(=O)CCN3CCCO3)C2)cc1 (stereo not shown) | 13.8% |
| CCC1CCCCN1CCNS(=O)(=O)c1ccc2c(c1)oc(=O)n2C (stereo not shown) | 7.07% |
| Cc1cc(F)ccc1N1CCC(N2CCN(C(C)C)C(CCO)C2)CC1 (stereo not shown) | -24.7% |
| Cc1cccc(OCC(O)CN2CC3(C)CC2CC(C)(C)C3)c1 (stereo not shown) | -67.6% |
| CC1CCN(CCC(=O)Nc2ccc(Cl)cc2)CC1.Cl | -56.9% |
| CCCc1c(OCCCCc2nn[nH]n2)ccc(C(C)=O)c1O | 11.8% |
| COc1cc(NC(=O)c2cccs2)c(OC)cc1NC(=O)c1cccs1 | 11.1% |
| COc1ccc(C(c2sc3nc(C)nn3c2O)N2CCC3(CC2)OCCO3)cc1 (stereo not shown) | -2.74% |
| O=C(COc1ccc(C(=S)N2CCOCC2)cc1)N1CCCC1 | 4.23% |
| O=C(O)C1C2C=CC(C2)C1C(=O)Nc1ccccc1Br (stereo not shown) | 12.5% |
